Experimental findings from patent publication US20220403048A1, “BINDING MOLECULES TO ARGINASE II [ARG2]” (Cancer Research Technology Limited, priority 2019, published 2022) are described below.

The term EC50 denotes the concentration giving half of the maximal effect.

The experiment deals with T1, ARG2 (Homo sapiens, UniProt P78540).
T1 sequence (P78540 23-354): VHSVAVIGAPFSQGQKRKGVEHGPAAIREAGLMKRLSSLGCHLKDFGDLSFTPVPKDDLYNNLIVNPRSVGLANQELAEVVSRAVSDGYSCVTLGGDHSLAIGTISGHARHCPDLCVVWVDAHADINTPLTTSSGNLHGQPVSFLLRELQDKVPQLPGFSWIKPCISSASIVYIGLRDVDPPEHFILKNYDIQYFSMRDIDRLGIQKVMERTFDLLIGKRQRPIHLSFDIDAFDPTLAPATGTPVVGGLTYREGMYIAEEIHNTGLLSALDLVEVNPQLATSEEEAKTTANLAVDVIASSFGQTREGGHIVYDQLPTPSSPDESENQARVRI
The experiment can be described thus: T cell proliferation assay (BrdU, 72 hours) with exogenous ARG2. The arrangement: human ARG2 (aa23-354); His10 (C); made in house; host or cells: E. coli BL21 (DE3). Type of experiment: cell-based. The procedure: This assay served to provide in vitro evidence of functional efficacy for each antibody.
Briefly, Leukocyte cones (NHS Blood and Transplant, Watford, UK) underwent Ficoll Plaque (GE, Sweden; Cat: 17-1440-02) gradient separation, PBMC's were extracted and pan T cell population isolated by negative selection using the Human T Cell Enrichment Kit (Stemcell Technologies, France; Cat: 19051) according to the manufacturer's instructions.
40000 cells/well were seeded in complete growth media (RMPI 1640, 5% Human Serum Albumin) into a 96 well clear TC treated microplate (Greiner-Bio One, Germany; Cat: 655180). T Cells were activated by the addition of ImmunoCult CD3/CD28 (Stemcell Technologies, France; Cat: 10971) at a dilution of 1:40 directly into wells and the plate incubated 37° C., 5% CO2 for 45 minutes.
To determine EC50's of test antibodies, a dilution series was created in sterile TBS at 8× the final assay concentration was added to the assay plate containing cells. Plate was incubated for 30 minutes at 37° C., 5% CO2.
ARG2 was added to relevant wells of the plate at a final concentration of 15 μg/ml. The equivalent volume of ARG2 vehicle and test antibody vehicle was added to relevant control wells. […]
Calculated data was expressed as % of control (Equation 3) and graphical plots were constructed using a four parameter fit and EC50's determined using model 205 in XLFit (IDBS, UK). […]

B1: C0020187: anti-ARG2 antibody, parent lead isolation clone, VH SEQ ID NO: 12, VL SEQ ID NO: 17 (antibody, listed as Homo sapiens, V domains shown)
VH: [about 100 residues not given here]LRADLGLYMDLWGRGTLVTVSS
VL: QSVLTQPPSVSAAPGQKVTISCSGSSSNIGNHYVSWYQQLPGTAPKLLIYDNSERPSGIPDRFSGSKSGTSATLGITGLQTGDEADYYCGTWDSSLSALVFGGGTKLTVL
modifications: C0020187
For the molecule B1, the “Maximum % Proliferation” value (In Presence of rhARG2, NHLA value at 0.444 mM) is listed as 59%. Further, the 50% effective concentration (EC50) (In Presence of rhARG2, cell without unit) is 971 nM.
